In the supplement of paper PMC4604168 (melanoma cell lines):
The other results are listed elsewhere or left out. Repeats are few or missing, and single values can be far off.

Assays:
Assay in all cases: cell count relative to DMSO control; melanoma cells; higher = more viable cells
Conditions in all cases: library dose: low library concentration; 72 h
MZ2-MEL = tested on: MZ2-MEL
MeWo = tested on: MeWo
RPMI7951 = tested on: RPMI7951
RVH-421 = tested on: RVH-421
SkMel28 = tested on: SkMel28
SkMel2 = tested on: SkMel2
SkMel30 = tested on: SkMel30
SkMel5 = tested on: SkMel5
UACC257 = tested on: UACC257
UACC62 = tested on: UACC62
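Note: cell number obtained by counting DAPI-stained nuclei in high-throughput microscope images with image analysis software, screen run in 1,536-well plates.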

Row | Structure (SMILES) | cell count (MZ2-MEL) | cell count (MeWo) | cell count (RPMI7951) | cell count (RVH-421) | cell count (SkMel28) | cell count (SkMel2) | cell count (SkMel30) | cell count (SkMel5) | cell count (UACC257) | cell count (UACC62)
1 | C=CCNC1=C2C[C@@H](C)C[C@H](OC)[C@H](O)[C@@H](C)/C=C(\C)[C@H](OC(N)=O)[C@@H](OC)/C=C\C=C(/C)C(=O)NC(=CC1=O)C2=O [Tanespimycin] + COC(=O)c1sccc1S(=O)(=O)Nc1ccc(Nc2ccccc2)cc1OC [GSK0660] (first compound 0.002 µM, partner dose 1 µM) | 98.6% | 112% | 91.9% | 131% | 105% | 92.6% | 95.9% | 89.6% | 102% | 89.4%
2 | CS(=O)(=O)CCNCc1ccc(-c2ccc3ncnc(Nc4ccc(OCc5cccc(F)c5)c(Cl)c4)c3c2)o1 [lapatinib] + CC1(C)NC(=O)N(c2ccc([N+](=O)[O-])c(C(F)(F)F)c2)C1=O [nilutamide] (first compound 0.8 µM, partner dose 1 µM) | 108% | 103% | 92.1% | 93.8% | 97.1% | 106% | 126% | 101% | 97.5% | 110%
3 | CS(=O)(=O)CCNCc1ccc(-c2ccc3ncnc(Nc4ccc(OCc5cccc(F)c5)c(Cl)c4)c3c2)o1 [lapatinib] + Oc1nc(-c2ccc(C(F)(F)F)cc2)nc2c1CSCC2 [XAV939] (first compound 0.8 µM, partner dose 2 µM) | 89.2% | 100% | 88.8% | 87.8% | 88.1% | 93.5% | 81.9% | 82.8% | 84.5% | 96.3%
4 | C[C@@H](Oc1cc(-c2cnn(C3CCNCC3)c2)cnc1N)c1c(Cl)ccc(F)c1Cl [Crizotinib] + NC(=O)Nc1cc(-c2cccc(F)c2)sc1C(=O)N[C@H]1CCCNC1 [AZD7762] (first compound 0.2 µM, partner dose 0.02 µM) | 113% | 98.4% | 96.9% | 140% | 90.1% | 95.6% | 123% | 99.2% | 104% | 99%
5 | CN1CCN(c2ccc3nc(-c4c(N)c5c(F)cccc5[nH]c4=O)[nH]c3c2)CC1 [Dovitinib] + COc1ccc2c(c1)CCC1C2CCC2(C)C(NCCCCCCN3C(=O)C=CC3=O)CCC12 [U73122] (first compound 0.1 µM, partner dose 0.4 µM) | 99.6% | 93.3% | 101% | 91.7% | 110% | 106% | 121% | 91.1% | 87.1% | 103%
6 | CN1CCN(c2ccc3nc(-c4c(N)c5c(F)cccc5[nH]c4=O)[nH]c3c2)CC1 [Dovitinib] + NCC(=O)Nc1ccc(-n2nc(C(F)(F)F)cc2-c2ccc3c(ccc4ccccc43)c2)cc1 [OSU03012] (first compound 0.1 µM, partner dose 1 µM) | 93% | 55.4% | 86.3% | 88.6% | 72.4% | 81.1% | 56% | 89.5% | 83.8% | 87.1%
7 | CNC(=O)c1cc(Oc2ccc(NC(=O)Nc3ccc(Cl)c(C(F)(F)F)c3)cc2)ccn1 [sorafenib] + CCCCCCCCCCCC1=C(O)C(=O)C=C(O)C1=O [Embelin] (first compound 0.4 µM, partner dose 1.2 µM) | 103% | 102% | 87.7% | 81.9% | 109% | 97% | 112% | 105% | 104% | 110%
8 | CNC(=O)c1cc(Oc2ccc(NC(=O)Nc3ccc(Cl)c(C(F)(F)F)c3)cc2)ccn1 [sorafenib] + OCCn1cc(-c2cnc3nnn(Cc4ccc5ncccc5c4)c3n2)cn1 [PF04217903] (first compound 0.4 µM, partner dose 1 µM) | 94.3% | 99.9% | 84.1% | 95.9% | 103% | 96.6% | 121% | 101% | 129% | 92%
9 | CNC(=O)c1cc(Oc2ccc(NC(=O)Nc3ccc(Cl)c(C(F)(F)F)c3)cc2)ccn1 [sorafenib] + O=C(Nc1cccc(Cl)c1)Nc1ncc(CCNc2ncnc3ccsc23)s1 [SNS314] (first compound 0.4 µM, partner dose 0.0008 µM) | 93.4% | 91.1% | 97.9% | 79.6% | 88.7% | 98.9% | 104% | 87.2% | 77.2% | 91.2%
10 | CS(=O)(=O)CCNCc1ccc(-c2ccc3ncnc(Nc4ccc(OCc5cccc(F)c5)c(Cl)c4)c3c2)o1 [lapatinib] + O=C(CCCCCCC(=O)Nc1ccccc1)NO [vorinostat] (first compound 0.8 µM, partner dose 0.08 µM) | 99.4% | 95.7% | 87.8% | 92.3% | 86.1% | 104% | 77.7% | 89.3% | 98.3% | 87.2%
11 | C[C@@H](Oc1cc(-c2cnn(C3CCNCC3)c2)cnc1N)c1c(Cl)ccc(F)c1Cl [Crizotinib] + Cc1cc([N+](=O)[O-])ccc1NS(=O)(=O)c1cc(Cl)ccc1Cl [FH535] (first compound 0.2 µM, partner dose 1 µM) | 93% | 94.9% | 94.3% | 73.1% | 89.8% | 94.5% | 92.7% | 94.8% | 109% | 91.7%
12 | CN1CCN(c2ccc3nc(-c4c(N)c5c(F)cccc5[nH]c4=O)[nH]c3c2)CC1 [Dovitinib] + CCc1ccc(CCOc2ccc(CC3SC(=O)NC3=O)cc2)nc1 [pioglitazone] (first compound 0.1 µM, partner dose 2 µM) | 101% | 82.8% | 115% | 121% | 90.2% | 117% | 102% | 84.2% | 73.1% | 95.9%
13 | CN1CCN(c2ccc3nc(-c4c(N)c5c(F)cccc5[nH]c4=O)[nH]c3c2)CC1 [Dovitinib] + O=C(CCCCCCC(=O)Nc1ccccc1)NO [vorinostat] (first compound 0.1 µM, partner dose 0.08 µM) | 88.4% | 75.3% | 107% | 133% | 65.1% | 99.4% | 52.3% | 79.1% | 80.3% | 90.7%
14 | CN1CCN(c2ccc3nc(-c4c(N)c5c(F)cccc5[nH]c4=O)[nH]c3c2)CC1 [Dovitinib] + CN(NC(=O)CC(=O)NN(C)C(=S)c1ccccc1)C(=S)c1ccccc1 [STA4783] (first compound 0.1 µM, partner dose 0.006 µM) | 101% | 96.7% | 109% | 92.3% | 94.3% | 110% | 67.9% | 96.4% | 114% | 96.2%
15 | C[C@@H](Oc1cc(-c2cnn(C3CCNCC3)c2)cnc1N)c1c(Cl)ccc(F)c1Cl [Crizotinib] + CO[C@@H]1[C@H](N(C)C(=O)c2ccccc2)C[C@H]2O[C@]1(C)n1c3ccccc3c3c4c(c5c6ccccc6n2c5c31)C(=O)NC4 [Midostaurin] (first compound 0.2 µM, partner dose 0.08 µM) | 95.7% | 85.7% | 82.6% | 77.8% | 101% | 78.8% | 113% | 83.2% | 70.6% | 90.4%
16 | C=CCNC1=C2C[C@@H](C)C[C@H](OC)[C@H](O)[C@@H](C)/C=C(\C)[C@H](OC(N)=O)[C@@H](OC)/C=C\C=C(/C)C(=O)NC(=CC1=O)C2=O [Tanespimycin] + CC(C)CCN1c2nc(Nc3cc(F)c(O)c(F)c3)ncc2N(C)C(=O)C1C [BID1870] (first compound 0.002 µM, partner dose 0.2 µM) | 110% | 85.9% | 108% | 115% | 84.6% | 104% | 82.3% | 90.7% | 102% | 80.9%
17 | CS(=O)(=O)CCNCc1ccc(-c2ccc3ncnc(Nc4ccc(OCc5cccc(F)c5)c(Cl)c4)c3c2)o1 [lapatinib] + CN(C)S(=O)(=O)c1ccc2c(c1)/C(=C/c1cc3c([nH]1)CCCC3)C(=O)N2 [SU6656] (first compound 0.8 µM, partner dose 0.4 µM) | 115% | 89.6% | 83.3% | 84.2% | 82.7% | 110% | 104% | 90.7% | 76.4% | 96.8%
18 | CNC(=O)c1cc(Oc2ccc(NC(=O)Nc3ccc(Cl)c(C(F)(F)F)c3)cc2)ccn1 [sorafenib] + COc1cc2ncnc(Nc3ccc(Oc4ccccc4)cc3)c2cc1OC [SrcI1] (first compound 0.4 µM, partner dose 2 µM) | 88.6% | 95% | 91.4% | 116% | 96.8% | 105% | 116% | 97.1% | 90.6% | 103%
19 | CS(=O)(=O)CCNCc1ccc(-c2ccc3ncnc(Nc4ccc(OCc5cccc(F)c5)c(Cl)c4)c3c2)o1 [lapatinib] + O=C(O)C(=O)Nc1sc2c(c1C(=O)O)CCNC2 [TCS401] (first compound 0.8 µM, partner dose 1.66667 µM) | 92.8% | 90.3% | 105% | 91.9% | 104% | 94.6% | 96.9% | 99.3% | 95% | 97.9%
20 | CNC(=O)c1cc(Oc2ccc(NC(=O)Nc3ccc(Cl)c(C(F)(F)F)c3)cc2)ccn1 [sorafenib] + Oc1cc(-c2nc(-c3ccccc3)[nH]c2-c2ccncc2)ccc1Cl [L779450] (first compound 0.4 µM, partner dose 0.2 µM) | 95.7% | 82.5% | 97.9% | 82.2% | 76.2% | 97.7% | 94% | 95.7% | 90.3% | 64%
21 | C[C@@H](Oc1cc(-c2cnn(C3CCNCC3)c2)cnc1N)c1c(Cl)ccc(F)c1Cl [Crizotinib] + OCCn1cc(-c2cnc3nnn(Cc4ccc5ncccc5c4)c3n2)cn1 [PF04217903] (first compound 0.2 µM, partner dose 1 µM) | 98.1% | 85% | 97.6% | 106% | 82.9% | 92.8% | 83.2% | 89.5% | 78.7% | 88.3%
